# Among all 360,000 compounds or so, about 6,000 (1.7%) were called active. This list was built around the results that the source calls inconclusive (neither active nor inactive); the mix of calls is not that of the screen. Calls follow the shape of the dose curve; as a rule, active = well fitted cell-killing curve with a large enough effect; inconclusive = small, poorly fitted or top-dose-only effect, or effect the other way; inactive = flat fitted curve, though single readings scatter. Potencies of inconclusive entries are left out as doubtful fits.
# Test: qHTS for induction of synthetic lethality in tumor cells producing 2HG: qHTS for the HT-1080-NT fibrosarcoma cell line;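 also: NT is the 2HG producing partner of a matched IDH1 knockdown line; nearly all actives have a fitted effect of over 55% in size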;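 as to activity, negative = less viability: 0% = DMSO-treated cells and -100% = media-only wells without cells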
# Settings: HT-1080-NT fibrosarcoma viability, CellTiter-Glo ATP luminescence, 48 h; activity, negative = less viability: at 46.1 µM (top of the series) unless noted
# How it was run: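 Viability of the 2HG-overproducing fibrosarcoma line after 48 hours of compound exposure at 37 degrees C was determined by luminescence with CellTiter-Glo, and concentration-effect curves were then fitted and categorized.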
# Potency is read from the fitted curve at half-maximal effect; tags tell the direction and shape of the fitted curve.
Compound,Potency,"activity, negative = less viability"
Cc1cccc(C(=O)NCCNc2nc3cc(C)c(C)cc3cc2C)c1,"inconclusive [cytotoxic, single point]",–
COc1ccc(C(=O)N(Cc2nc(-c3ccc(C)cc3)no2)C2CCCCC2)cc1OC,"inconclusive [cytotoxic, single point]",–
CCOc1cc(C#N)c(NC(=O)c2ccco2)cc1OCC,"inconclusive [cytotoxic, single point]",–
COc1ccc(CCN2C(=S)N(C)C(=O)C2CC(=O)Nc2ccc(F)cc2)cc1 (centres undefined),"inconclusive [cytotoxic, partial curve]",–
CC1(C)Cc2c(sc3c2C(=O)N(c2ccccc2)C2=NCCN23)CS1,inactive,–
CC(=O)C1C(c2cccc(F)c2)NC(=O)NC1(O)C(F)(F)F (centres undefined),–,inconclusive: -25.1% [cytotoxic]
O=S(=O)(c1ccc(Cl)nc1)N1CCN(c2ncccn2)CC1,inactive,–
Cc1ccc2c(c1)CCCN2C(=O)c1ccoc1C,active: 22.4 µM,–
COc1ccc(C(=O)Nc2cc(OC)c(NC(=O)Nc3ccccc3)cc2OC)cc1,"inconclusive [cytotoxic, single point]",–
O=C(CNC(=O)c1ccco1)NNC(=O)c1cccc(Cl)c1,–,inactive: 12% [at 9.24 µM]
N#CC1=C(SCC(=O)c2ccc(Br)cc2)NC2=C(C(=O)CCC2)C1c1ccco1 (centres undefined),active: 13 µM,–
CCCCC1CCC(C(=O)Nc2ccc(S(=O)(=O)Nc3nccs3)cc2)CC1 (centres undefined),"inconclusive [cytotoxic, single point]",–
CCC/C=N/Nc1nc2ccccc2s1,"inconclusive [cytotoxic, single point]",–
CCOC(=O)N1C=CC=C[C@@H]2[C@@H](N3C(=O)c4ccccc4C3=O)C(=O)N21,"inconclusive [rising, single point]",–
Cc1ccc(OCc2nc3ccccc3n2C(C)C(=O)Nc2c(C)cccc2C)cc1 (centres undefined),"inconclusive [cytotoxic, single point]",–
Cc1cccc(N2CCN(C(=O)CCCSc3nc4ccccc4[nH]3)CC2)c1C,"inconclusive [cytotoxic, single point]",–
COc1ccccc1N1CCN(C(=O)CCCn2nc(C)c([N+](=O)[O-])c2C)CC1,inactive,–
CCCc1cc(-n2ccnc2)n2c(nc3ccccc32)c1C#N,"inconclusive [cytotoxic, single point]",–
O=C(Nc1ccc(C(=O)OC2CCCCC2)cc1)c1ccncc1,"inconclusive [cytotoxic, single point]",–

# From PubChem BioAssay AID686970 (National Center for Advancing Translational Sciences (NCATS), 2013)
